About 1,200 (0.92%) of roughly 130,000 compounds were called active. The shares of active, inactive and inconclusive entries below differ from those in the screen. Calls follow the shape of the dose curve; as a rule, active = well fitted cell-killing curve with a large enough effect; inconclusive = small, poorly fitted or top-dose-only effect; inactive = no such curve, though single readings can be large or run the other way. Potencies of inconclusive entries are doubtful fits and often do not repeat.
Experiment: qHTS Screen for Compounds that Selectively Target Cancer Cells with p53 Mutations: Cytotoxicity of p53ts Cells at the Permissive Temperature; also: nearly all actives have a fitted effect of over 55% in size
Conditions: H1299-p53A138V at 32C, ATP luminescence viability, 24 h; series mostly up to 46.1 µM
Summary of the method: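 Cells: H1299 p53ts (A138V), 600/well, pre-incubated 16–30 h at 37C. Cpd up to 46 uM, 24 h, 32C. Readout: ATPlite luminescence, 20 min RT. Normalization: DMSO vs tamoxifen 100 uM. AC50 by Hill equation.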
Potency is read from the fitted curve at half-maximal effect; tags tell the direction and shape of the fitted curve.

Structure (SMILES)	Potency
O=C(c1ccco1)N1CCC2(CC1)CN(Cc1cc(C(F)(F)F)cc(C(F)(F)F)c1)C2	inactive
Cc1ccc(Oc2nc3ccccn3c(=O)c2/C=C(\C#N)c2nc3ccccc3s2)c(C)c1	inactive
O=C(Cn1c(=O)n(-c2ccccc2)c(=O)c2c3c(sc21)CCCC3)Nc1ccccc1	inconclusive: 12.6 µM [cytotoxic, single point]
CCCC(O)(CCN1CCOCC1)c1ccc(Br)cc1 (centres undefined)	inconclusive: 0.316 µM [cytotoxic, full curve, poor fit]
C=CCNC(=O)c1sc(=S)n(-c2ccc(C(=O)OCC)cc2)c1N	inactive
O=C(Nc1c(Cl)cccc1Cl)c1cc(-c2cccc(O)c2)on1	inconclusive: 35.5 µM [cytotoxic, single point]
CCOc1ccc2nc(NC(=O)CN3CCC(n4nnc5cc(F)ccc54)CC3)sc2c1	inconclusive: 25.1 µM [cytotoxic, single point]
COc1ccc(NC(=O)c2oc3ccc(S(=O)(=O)N(C)C4CCCCC4)cc3c2C)cc1	inactive
O=C(NCCc1csc2nc(-c3cccc(F)c3)nn12)c1ccc(Br)o1	inactive
CCOC(=O)c1sc(NC(=O)c2ccc(Cl)s2)cc1C	inconclusive: 20 µM [cytotoxic, partial curve]
COc1ccc(/C=C/C(=O)Nc2ccc3nc(N4CCCCC4)cc(C)c3c2)cc1OC	inconclusive: 35.5 µM [cytotoxic, single point]
O=C(Nc1ccc(N2CCOCC2)cc1)c1cc2ccccc2o1	inconclusive: 10 µM [cytotoxic, partial curve]
O=C(Nc1ccc2c(c1)nc1n2CCSC1)c1ccco1	active: 2 µM
Cc1cc(C)c2c(n1)SCCN2C(=O)Nc1ccc(C(=O)Nc2ccc(C(C)C)cc2)cc1	inconclusive: 12.6 µM [cytotoxic, partial curve]
O=C(COc1ccccc1F)Nc1ccc(Cl)c(-c2nc3ccccc3[nH]2)c1	inconclusive: 35.5 µM [cytotoxic, single point]
CCOc1ccc(NC(=O)Cn2cc(C(=O)c3ccc(CC)cc3)c(=O)c3ccc(C)nc32)cc1	inactive
CCc1ccc(C(=O)/C=C/c2cnn(C)c2C)s1	inconclusive: 22.4 µM [cytotoxic, single point]
CCOc1ccc(-c2cc(C(=O)N3CCN(c4ccc(C)cc4)C(C)C3)c3ccccc3n2)cc1 (centres undefined)	active: 15.8 µM
Cc1cc(NC(=O)c2cc3ccccc3o2)cc(C)c1OCC(=O)N1CCOCC1	inconclusive: 15.8 µM [cytotoxic, single point]
